Results reported in PubChem BioAssay AID1345083 (National Center for Advancing Translational Sciences (NCATS), 2018).
Several values for one entry are separate records, joined by “and”; a condition that tells them apart may be missing. Identical values can stand only once. The whole screen tested about 94,000 compounds, of which about 6,200 (6.6%) were called active. Inconclusive results, whose numbers are uncertain, are shown with a selection of clear calls. Calls come from the whole dose curve; as a rule, active = well fitted inhibition curve with a large enough effect; inconclusive = small, poorly fitted or top-dose-only effect; inactive = flat fitted curve, though single readings scatter. Potencies beside an inconclusive call are fits to weak or partial responses and may not hold up.

Assay: Cytotoxic Profiling in HEK 293 Cell Line of Diverse Libraries Using Quantitative High-Throughput Screening; note: nearly all actives have a fitted effect of over 60% in size
Settings: HEK 293 viability, ATP luminescence (CellTiter-Glo), 48-72 h; activity change, negative = cytotoxicity: at 115 µM (top of the series) unless noted; series mostly up to 115 µM
Summary of the method: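 250 HEK 293 cells/well; compound by pintool; incubated 48 or 72 hr at 37 degree Celsius; CellTiter-Glo added, 10 min RT, luminescence imaged.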
% is set by controls: 0 for no effect and ±100 for the full control effect; potency is the fitted concentration of half-maximal effect; tags give direction and shape of the fitted curve.

| SMILES | activity change, negative = cytotoxicity | Potency | outcome |
| --- | --- | --- | --- |
| COc1ccc(-c2ccc(C(=O)N3CCN(C(=O)c4ccc(C)cc4)CC3)cc2)nn1 | inactive: -25% | – | – |
| Cc1ccc2nc(C3CCN(Cc4cccs4)CC3)[nH]c(=O)c2c1 | – | inconclusive: 126 µM [inhibitor, single point] | – |
| O=C(NCc1cccnc1)c1nc(-c2ccc(Cl)nc2)c2ccccn12 | – | active: 79.4 µM | – |
| Cc1cccc(-c2cc(C3CCN(S(=O)(=O)c4cccc(C#N)c4)CC3)[nH]n2)c1 | – | active: 25.1 µM | – |
| C[S+](=O)([O-])N1Cc2ccccc2CC2(CCCN(CC3CCCCC3)C2)C1 (stereo not drawn) | inactive: -16.9% | – | – |
| Cc1nn2c(c1-c1ccccc1C(C)C)N(CCC(C)C)CCC2 | – | active: 11.2 µM | – |
| CC1=NS(=O)(=O)N(Cc2ccccc2)C=C1C(=O)OCc1nc(Cc2ccc(C)cc2)no1 | – | inconclusive: 44.7 µM [inhibitor, partial curve, poor fit] | – |
| COc1ccc(Nc2ccnc(N3CCN(C(=O)c4ccccc4OC)CC3)n2)cc1 | – | inconclusive: 50.1 µM [inhibitor, partial curve, poor fit] | – |
| COCCN1C(=O)c2cccn2CC1CNC(=O)c1ccccc1F (stereo not drawn) | inactive: 4.36% | – | – |
| CC(C)C(=O)N1Cc2ccccc2CC2(CCCCN2Cc2cccnc2)C1 (stereo not drawn) | – | inconclusive: 56.2 µM [inhibitor, partial curve, poor fit] | – |
| COc1cc(C(=O)N2CCCN(c3cc(-c4ccc(F)cc4)[nH]n3)CC2)cc(OC)c1OC | inactive: 2.1% | – | – |
| CCS(=O)(=O)N1CCC2(CC1)c1[nH]c3ccccc3c1CCN2C | – | inconclusive: 56.2 µM [inhibitor, partial curve, poor fit] | – |
| CN1C[C@@H](NS(=O)(=O)c2ccc(C#N)cc2)C[C@H]1c1nc(-c2ccncc2)no1 | inactive: -26.5% [at 172 µM] | – | – |
| CN(c1ccccc1)c1ccc2nnc(-c3ccc(F)cn3)n2n1 | – | inconclusive: 70.8 µM [inhibitor, partial curve] | – |
| CNC(=O)c1cc(C2CC2)nc2c1c(C1CCN(C(=O)c3ccccc3C)CC1)nn2C | inactive: -0.0414% | – | – |
| CCCN1C(CC(C)C)=NS(=O)(=O)c2cc(NC(=O)C(C)C)ccc21 | – | inconclusive: 79.4 µM [inhibitor, partial curve] | – |
| COc1ccc(OC)c(NC(=O)c2ccc3c(c2)N(C)C2CCCCN2C3=O)c1 (stereo not drawn) | – | inconclusive: 79.4 µM [inhibitor, partial curve, poor fit] | – |
| O=C(c1ccc(N2CC3CC(C2)[C@H]2CCCC(=O)N2C3)nc1)N1CCc2ccccc21 (stereo partly drawn) | – | inconclusive: 100 µM [inhibitor, single point] | – |
| CCN(CC)CC(=O)N1CCC(C(=O)Nc2ccc(-c3nc4ccccc4o3)cc2)CC1 | – | active: 22.4 µM | – |
| O=C(c1ccc(Cl)nc1)N1CCN(C(=O)c2nc3cccnc3n(C3CCCC3)c2=O)CC1 | inactive: -15.2% | – | – |
| COCCN1Cc2ccc(Nc3ccc(OC)cc3)nc2C(C)(C(=O)Nc2ccccc2)C1 (stereo not drawn) | – | inconclusive: 50.1 µM [inhibitor, partial curve, poor fit] | – |

| SMILES | activity change, negative = cytotoxicity | Potency | outcome |
| --- | --- | --- | --- |
| O=S(=O)(c1ccc(F)cc1)N1CCCC(Cc2noc(-c3cccnc3)n2)C1 (stereo not drawn) | – | inconclusive: 50.1 µM [inhibitor, partial curve, poor fit] | – |
| CN(C)c1ccc(C(=O)N[C@H]2CO[C@H]3[C@@H]2OC[C@@H]3n2nnnc2Oc2cccc(N(C)C)c2)cc1 | – | inconclusive: 17.8 µM [inhibitor, partial curve, poor fit] | – |
| O=C(CCC1CCCN(CC2=Cc3cc(Cl)ccc3OC2)C1)Nc1ccccc1F (stereo not drawn) | – | inconclusive: 50.1 µM [inhibitor, partial curve, poor fit] | – |
| O=C(NC1CCN(C(=O)c2ccc(-c3cncnc3)cc2)CC1)C1CCCC1 | inactive: -13.7% | – | – |
| O=C(c1ccc(C(F)(F)F)cc1)N1CCC2(CC(c3cccc(C(F)(F)F)c3)=NO2)C1 (stereo not drawn) | – | inconclusive: 79.4 µM [inhibitor, partial curve, poor fit] | – |
| COc1cccc(CNC(=O)C2CN(S(=O)(=O)c3cccnc3)CC23CCCCC3)c1 (stereo not drawn) | – | inconclusive: 89.1 µM [inhibitor, single point] | – |
| COCCNC(=O)c1ccc2c(c1)N(C)C(CC(=O)NCC(C)(C)C)CO2 (stereo not drawn) | – | inconclusive: 89.1 µM [inhibitor, single point] | – |
| Cc1cnc(-c2ccccc2)n1CCNC(=O)CCC1CCCC1 | – | inconclusive: 39.8 µM [inhibitor, partial curve, poor fit] | – |
| Cc1ccc(NC(=O)Cn2c(N3CCCCC3)nc(C)c(C)c2=O)cc1 | – | inconclusive: 89.1 µM [inhibitor, single point] | – |
| O=C(NC1CC1)c1ccc2nnc(-c3ccoc3)n2c1 | – | – | inactive [at 172 µM] |
| CN1C[C@@H](NS(=O)(=O)c2ccccc2)C[C@H]1c1nc(-c2ccccn2)no1 | inactive: -26.8% [at 172 µM] | – | – |
| COc1cccc(N2CCN(C(=O)COc3ccc(NC(=O)C4CC4)cn3)CC2)c1 | – | inconclusive: 89.1 µM [inhibitor, single point] | – |
| O=C1CO[C@H]2CCN(Cc3cccs3)CC[C@@H]2N1Cc1ccccc1 | – | inconclusive: 112 µM [inhibitor, single point] | – |
| CCn1nccc1C(=O)N1CC(Oc2ccc(-c3nc(-c4ccccc4)no3)cc2)C1 | – | active: 11.2 µM | – |
| COc1ccccc1NC(=O)Cn1c(=O)n(-c2ccccc2)c(=O)c2c1cc(C)n2C | inactive: -9% | – | – |
| O=C(C[C@@H]1CCNC[C@@H]1Cc1cc(-c2ccc(F)cc2)on1)Nc1nccs1 | – | active: 100 µM | – |
| CC(C)NC(=O)N1CCC2(CC1)CC(N(Cc1ccc(F)cc1)C1CC1)CCO2 (stereo not drawn) | inactive: -15.3% | – | – |
| COc1ccccc1C(=O)NC1CCN(c2ccnc3ccnn23)C1 (stereo not drawn) | – | inconclusive: 15.8 µM [inhibitor, full curve, poor fit] | – |
| Cc1ccc2nc(CO[C@H]3CN(CC4CC4)C[C@H]3F)[nH]c2c1 | inactive: -21.3% [at 172 µM] | – | – |
| Cc1ccccc1N(C)C1CN(Cc2ccc(F)cc2)C1 | – | inconclusive: 100 µM [inhibitor, partial curve, poor fit] | – |
| CCN1c2cc(C(=O)Nc3cc(C)cc(C)c3)ccc2C(=O)N2CCCC21 (stereo not drawn) | – | inconclusive: 35.5 µM [inhibitor, partial curve] | – |

| SMILES | activity change, negative = cytotoxicity | Potency | outcome |
| --- | --- | --- | --- |
| COc1cccc(-c2noc(CN3CCC(c4nc(-c5cccn5C)no4)C3)n2)c1OC (stereo not drawn) | – | inconclusive: 50.1 µM [inhibitor, partial curve, poor fit] | – |
| COc1ccc(C(=O)N2CCC3(CC2)NC(=O)N(c2cccc(Cl)c2)N3)cc1 | – | inconclusive: 44.7 µM [inhibitor, partial curve, poor fit] | – |
| NCc1cccc(-c2ccc3c(c2)C(=O)N2CC[C@H](NC(=O)c4cccc(F)c4)[C@H]2C(=O)N3)c1 | – | inconclusive: 56.2 µM [inhibitor, partial curve, poor fit] | – |
| O=C(NC1CCCC1)NC1CCN(Cc2cccc(-c3ccc(F)cc3F)c2)CC1 | – | inconclusive: 56.2 µM [inhibitor, partial curve, poor fit] and active: 35.5 µM | – |
| COc1ccccc1Nc1ccnc(N2CCN(C(=O)c3ccccc3)CC2)n1 | – | inconclusive: 25.1 µM [inhibitor, partial curve, poor fit] | – |
| CC(C)c1ccc(NC(=O)N[C@H]2CO[C@H]3[C@@H]2OC[C@H]3OC(=O)Nc2cccc(C(F)(F)F)c2)cc1 | – | active: 28.2 µM | – |
| Cc1ccsc1C(=O)N1CCC(n2cc(-c3nc(C4CC4)no3)nn2)C1 (stereo not drawn) | – | inconclusive: 70.8 µM [inhibitor, partial curve, poor fit] | – |
| COc1ccccc1-c1cccc(CN2CCC(NC(=O)c3ccccc3Cl)CC2)c1 | – | active: 79.4 µM | – |
| CCCNC(=O)N1CCC2(CC1)CC(c1ccccc1)C(=O)N2C (stereo not drawn) | inactive: -10.8% | – | – |
| CC1=NS(=O)(=O)N(C)C=C1C(=O)OCc1noc(-c2ccccc2C)n1 | – | inconclusive: 44.7 µM [inhibitor, partial curve, poor fit] | – |
| COc1cc(CN2C[C@@H](CO)[C@H](NC(=O)c3ccccc3)C2)ccc1F | – | inconclusive: 100 µM [inhibitor, partial curve, poor fit] | – |
| CCOC(=O)[C@H]1[C@@H](O)C(=O)N(C(C)C)C12CCN(C(=O)COC)CC2 | – | inconclusive: 50.1 µM [inhibitor, partial curve, poor fit] | – |
| CSc1ccc(-c2cccc(C(=O)NCCNC(=O)c3ccccc3F)c2)cc1 | – | inconclusive: 44.7 µM [inhibitor, partial curve, poor fit] | – |
| O=C(Cc1ccc(F)cc1)N1CCN(c2ccc3nnc(C4CC4)n3n2)CC1 | inactive: -27.1% | – | – |
| O=C1N(CCc2ccccc2)CCOC12CCN(Cc1ccc3cn[nH]c3c1)CC2 | – | inconclusive: 112 µM [inhibitor, partial curve, poor fit] | – |
| CC(C)N(Cc1nccn1C)C(=O)CC(c1ccccc1)c1ccccc1F (stereo not drawn) | – | inconclusive: 56.2 µM [inhibitor, partial curve, poor fit] | – |
| CCOC(=O)c1cccc(NC(=O)N2CC[C@@H](CC(=O)NC3CC3)[C@@H](CC)C2)c1 | inactive: -9.35% [at 172 µM] | – | – |
| CN(Cc1cccnc1)Cc1nc(C2(O)CCN(Cc3ccccc3F)CC2)cs1 | – | inconclusive: 44.7 µM [inhibitor, partial curve, poor fit] | – |
| O=C(Nc1ccccc1F)N1CC(Oc2cccc(-c3nc(-c4ccccc4)no3)c2)C1 | – | inconclusive: 20 µM [inhibitor, full curve] | – |
| O=C(c1cc(-c2ccccc2)n[nH]1)N1CCC2(CC1)N=C(c1ccccc1)NO2 | – | inconclusive: 89.1 µM [inhibitor, single point] | – |
| O=C([C@H]1CCC[C@H](O)C1)N1CCN(Cc2ccc(C(F)(F)F)cc2)CC1 | – | inconclusive: 79.4 µM [inhibitor, partial curve] | – |
